91 compounds from publication PMC4336329 (PLoS ONE, 2015) can be followed below.

About 14,000 (4.5%) of roughly 310,000 compounds showed an effect of 50% or more. The effect is printed as a negative number. Some of the results follow.
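Further: peak tail current of the secondary pulse compared with the same well before compound.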

This experiment deals with human ether-à-go-go-related gene (hERG) potassium channel (human, UniProt Q12809). The experiment can be described thus: primary screen, population patch clamp on CHO cells stably expressing hERG.
Chain of human ether-à-go-go-related gene (hERG) potassium channel (Q12809 whole entry, looked up): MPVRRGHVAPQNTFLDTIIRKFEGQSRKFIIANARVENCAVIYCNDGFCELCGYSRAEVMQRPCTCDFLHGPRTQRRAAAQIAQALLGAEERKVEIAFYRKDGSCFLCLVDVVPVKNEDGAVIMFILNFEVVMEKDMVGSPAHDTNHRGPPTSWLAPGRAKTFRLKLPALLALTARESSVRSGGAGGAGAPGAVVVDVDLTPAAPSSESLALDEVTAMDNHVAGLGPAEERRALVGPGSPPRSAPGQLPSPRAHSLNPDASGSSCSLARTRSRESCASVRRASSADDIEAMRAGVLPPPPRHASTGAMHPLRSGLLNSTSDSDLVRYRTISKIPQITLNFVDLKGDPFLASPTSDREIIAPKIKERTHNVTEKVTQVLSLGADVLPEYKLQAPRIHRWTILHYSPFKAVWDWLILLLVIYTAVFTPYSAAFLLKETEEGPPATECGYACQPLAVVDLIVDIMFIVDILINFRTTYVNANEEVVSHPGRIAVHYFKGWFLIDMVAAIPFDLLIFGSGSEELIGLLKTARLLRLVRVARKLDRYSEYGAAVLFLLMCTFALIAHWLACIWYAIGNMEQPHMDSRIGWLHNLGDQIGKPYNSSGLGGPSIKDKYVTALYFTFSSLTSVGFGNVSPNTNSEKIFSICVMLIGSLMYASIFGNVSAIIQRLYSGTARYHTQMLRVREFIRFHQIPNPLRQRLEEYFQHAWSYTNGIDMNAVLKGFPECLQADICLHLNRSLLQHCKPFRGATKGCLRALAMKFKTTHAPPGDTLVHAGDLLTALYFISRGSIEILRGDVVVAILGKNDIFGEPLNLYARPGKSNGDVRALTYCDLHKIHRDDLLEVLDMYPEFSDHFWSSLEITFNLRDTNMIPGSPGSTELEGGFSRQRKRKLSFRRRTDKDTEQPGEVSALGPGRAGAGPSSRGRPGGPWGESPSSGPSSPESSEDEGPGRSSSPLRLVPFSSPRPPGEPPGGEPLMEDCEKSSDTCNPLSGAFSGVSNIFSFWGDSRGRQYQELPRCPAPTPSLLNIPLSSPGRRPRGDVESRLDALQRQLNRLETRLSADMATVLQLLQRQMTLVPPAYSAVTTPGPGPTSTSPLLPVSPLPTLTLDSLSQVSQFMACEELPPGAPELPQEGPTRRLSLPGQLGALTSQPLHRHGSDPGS
Regarding `O=C(CN1C(=O)c2ccccc2S1(=O)=O)NCc1cccnc1`, the “hERG current change (%, negative = inhibition) at 10uM” value was -2.53%.
The figure for `Cc1ccsc1C=Nc1c(C)n(C)n(-c2ccccc2)c1=O` is 13.8%; for `COc1ccc(CCN(C)CC(O)COc2ccc(C(C)=O)cc2OC)cc1OC` (stereo not shown) it is -21.6%; for `CCc1ccc(Cn2nnc(C(=O)Nc3cccc(C)c3)c2N)cc1` it is 9.6%.
The same measure for `O=C(NNC(=O)c1sccc1-n1cccc1)c1cccc(Cl)c1`: 5.3%; for `CCCCN(C(=O)Nc1ccccc1)C1CCS(=O)(=O)C1` (stereo not shown): -11%.
Consider `Cc1cccc(Nc2nc(Cl)ncc2F)c1C`, for which the “hERG current change (%, negative = inhibition) at 10uM” value was found to be 0.842%.
The same measure for `Cc1ccc(NC(=O)CCC(=O)c2cccs2)cc1F`: 2.31%; for `Cn1c(SCC(=O)NC2CCCC2)nnc1-c1cccs1`: 13.5%; for `COc1ccccc1-n1c(O)c(C=Nc2c(C)n(C)n(-c3ccccc3)c2=O)c(=O)[nH]c1=O`: 3.41%.
Take `Cc1nnc2sc(SCc3ccc(Cl)cc3)nn2c1=O`: the “hERG current change (%, negative = inhibition) at 10uM” value is recorded as -14.9%.
Turning to `CCOC(=O)c1cc(S(=O)(=O)N2CCN(C3CCCCC3)CC2)cn1C`, the “hERG current change (%, negative = inhibition) at 10uM” value amounted to 12.7%.
The same measure for `COc1ccc(-c2nc3cccc(C)n3c2NCC2CCCO2)cc1O.Cl` (stereo not shown): -5.6%.
The same measure for `CCCN(C(=O)Cc1csc(-c2ccccc2)n1)C1CCS(=O)(=O)C1` (stereo not shown): -2.9%; for `CCOC(=O)N1CCC(Nc2c(NCCCOC)c(=O)c2=O)CC1`: 8.44%.
On to `COc1ccc(C2C(C(C)=O)=C(O)C(=O)N2c2ccc(O)cc2)cc1` (stereo not shown), for which the “hERG current change (%, negative = inhibition) at 10uM” value worked out at 13.6%.
The same measure for `CCC(C)C(=O)Nc1cc(OC)c(OC)cc1C(=O)O` (stereo not shown): -5.85%.
The same measure for `CCCNC(=O)N1CCN(Cc2ccco2)CC1`: 11.2%; for `C=CCn1c(SCCC#N)nnc1-c1ccncc1`: -4.28%.
The figure for `CCCCn1c(=O)c2ccccc2n2c(=S)[nH]nc12` is 6.17%.
On to `Cn1cccc1Cc1nnc(SCC(=O)Nc2cccc(F)c2)n1CCc1ccccc1`, for which the “hERG current change (%, negative = inhibition) at 10uM” value was -20.3%.
The same measure for `Cc1ccc(Sc2c([N+](=O)[O-])c(=O)n(C)c3ccccc23)cc1`: 17.3%; for `CN(C)CCOc1ncnc2c1oc1ccccc12`: -13.5%; for `CC(=O)Nc1cccc(OCC(=O)NC(C)c2ccc3ccccc3c2)c1` (stereo not shown): 10.2%.
With `CCCCN(C(=O)c1ccc(S(=O)(=O)N(C)C)cc1)c1nc2ccccc2s1`, the “hERG current change (%, negative = inhibition) at 10uM” value came out at 11.8%.
The same measure for `Cc1cccc(NC(=O)C2C3C=CC(O3)C2C(=O)O)c1C` (stereo not shown): 15.8%; for `O=C(Nc1cccnc1)c1cc(-c2ccc(F)cc2)on1`: 10.9%; for `Br.O=C(CN1C2=NCCCN2c2ccccc21)c1cccc(Br)c1`: -71%.
The same measure for `CCN1CCCC1CNC(=O)C(=O)NCCc1ccc(OC)c(OC)c1` (stereo not shown): -1.49%.
The figure for `Cc1c(Cl)cccc1NC(=O)CSc1ncnc2c1cnn2CCc1ccccc1` is 13.9%; for `Cc1cc(C)c(NC(=O)CSc2nc3ncc(Br)cc3[nH]2)c(Cl)c1` it is 21%.
Consider `O=S1(=O)C=CC(N2CCOCC2)C1` (stereo not shown), for which the “hERG current change (%, negative = inhibition) at 10uM” value was -13.2%.
On to `Cc1cc(C)n2c(Br)c(CN3CC4CC(C3)c3cccc(=O)n3C4)nc2n1` (stereo not shown), for which the “hERG current change (%, negative = inhibition) at 10uM” value turned out to be 0.651%.
As for `COc1ccc(OCCCN2CCc3ccccc3C2)cc1.Cl`, the “hERG current change (%, negative = inhibition) at 10uM” value is given as -47.5%.
The figure for `CC(=O)Nc1ccc(S(=O)(=O)NCc2ccc(C)n2C)cc1` is 22.1%; for `CC1(C)CC(=O)C2=C(C1)Nc1ccccc1NC2c1ccc([N+](=O)[O-])cc1` (stereo not shown) it is -35.6%; for `CN1CCN(c2ccc(S(=O)(=O)N3CCCCC3)cc2NC(=O)COc2ccc(F)cc2)CC1` it is -75.2%.
For the compound `O=C(O)Cc1sc(Nc2ccc(F)cc2)nc1-c1cccs1`, the “hERG current change (%, negative = inhibition) at 10uM” value amounted to 15.3%.
As for `O=S(=O)(Nc1ccccn1)c1ccc(Br)cc1`, the “hERG current change (%, negative = inhibition) at 10uM” value was -2.97%.
In the case of `Cc1ccc(S(=O)(=O)N2CCC(C(=O)NCc3ccncc3)CC2)cc1`, the “hERG current change (%, negative = inhibition) at 10uM” value is listed as -9.15%.
The figure for `Cc1nn(C)c(C)c1N=Cc1c(O)ccc2ccccc12` is 12.9%.
The same measure for `CC1CCCCN1CC(=O)Nc1sccc1C#N` (stereo not shown): -13.2%; for `CCOC(=O)N1CCN(c2cccc(C)c2C)CC1`: -2.36%.
Turning to `COc1ccccc1CNS(=O)(=O)c1ccc(Cl)s1`, the “hERG current change (%, negative = inhibition) at 10uM” value was -6.4%.
`CCN(CC(=O)Nc1c(C(=O)OC)[nH]c2ccccc12)c1ccc2c(c1)OCO2`: the “hERG current change (%, negative = inhibition) at 10uM” value is on record as -17.4%.
`COCCNC(=O)/C(C#N)=C/c1ccc(C(=O)O)cc1`: the “hERG current change (%, negative = inhibition) at 10uM” value is reported as 47.8%.
The figure for `Oc1c(Br)cc(Br)c(/C=N/n2c(-c3ccccc3)n[nH]c2=S)c1Br` is 12.5%; for `CCOC(=O)CSc1nc(C)[nH]c1[N+](=O)[O-]` it is -1.45%.
The same measure for `CCCNC(=O)C(=O)NCC1CCCN1CC` (stereo not shown): 10.1%; for `Cc1ccc(C(=O)N/C(=C\c2cn(C)c3ccccc23)C(=O)NCCCn2ccnc2)cc1`: -7.74%.
The same measure for `CCCCC(=O)Oc1cc(C)[nH]c(=O)c1[N+](=O)[O-]`: 11.9%.
In the case of `COc1cccc(NC(=O)CN(C)C(=O)c2oc3c(ccc4ccccc43)c2C)c1`, the “hERG current change (%, negative = inhibition) at 10uM” value was -0.74%.
The figure for `Cc1cc(-c2csc(NC(=O)c3ccc(=O)[nH]c3)n2)c(C)n1Cc1ccccc1` is 20.4%; for `CNC(=O)/C(C#N)=C/c1ccc(-c2ccc(Cl)cc2)o1` it is 8.39%.
The same measure for `Cc1ccccc1C(=O)N1CCN(c2ccc(NC(=O)c3ccc4c(c3)OCO4)cc2)CC1`: -44.6%.
The figure for `CCN1CCN(S(=O)(=O)c2ccc3c(c2)NC(=O)CS3)CC1` is 19.9%; for `Cc1ccc(Cn2c(C)cc3c(c2=O)C(c2cccs2)C(C#N)=C(N)O3)cc1` (stereo not shown) it is 15.8%.
Turning to `O=C(Cc1n[nH]c(=O)c2ccccc12)OCc1c(Cl)cccc1Cl`, the “hERG current change (%, negative = inhibition) at 10uM” value worked out at 12.2%.
`CNC(=O)c1c(Br)cnn1-c1ccc(C)cc1`: the “hERG current change (%, negative = inhibition) at 10uM” value came to 18.2%.
The figure for `CCOC(=O)N1CCN(C(=O)CSc2nnc(-c3c[nH]c4ccccc34)n2CCOC)CC1` is 11.3%.
The figure for `CCOC(=O)c1ccccc1NC(=O)Cn1cnc2c(nnn2-c2ccc(C)cc2)c1=O` is 4.73%; for `COCCn1c(C)c(C)c(S(=O)(=O)c2ccccc2)c1N` it is 7.07%; for `N=C1SCC(=O)N1/N=C/c1ccccc1` it is 12.2%.
The figure for `Cn1nc(C(=O)Nc2ccc(S(=O)(=O)N3CCCC3)cc2)ccc1=O` is -8.6%; for `CC(OC(=O)CCC(=O)c1cccs1)C(=O)Nc1ccccc1[N+](=O)[O-]` (stereo not shown) it is -2.34%.
Turning to `CCOC(=O)C1(CCc2ccccc2)CCN(Cc2ccc(O)cc2)CC1`, the “hERG current change (%, negative = inhibition) at 10uM” value is given as -83.4%.
Take `COc1ccc(CN2CC(C(=O)NCCCOC(C)C)CC2=O)cc1` (stereo not shown): the “hERG current change (%, negative = inhibition) at 10uM” value was 0.406%.
With `CCc1cccc(N(CC(=O)NCc2ccc(F)cc2)C(=O)c2csnn2)c1`, the “hERG current change (%, negative = inhibition) at 10uM” value was -25.1%.
The figure for `COc1cccc(-c2n[nH]c(=S)n2Cc2ccco2)c1` is 8.9%; for `COc1ccc(OC)c2sc(N(CCN(C)C)C(=O)/C=C/c3cccs3)nc12.Cl` it is -43.6%; for `COc1cc2c(cc1OC)CN(CC(=O)Nc1ccc(C)c(C)c1)CC2` it is 5.14%.
On to `Cc1cc(C)n2nc(Sc3ncccc3[N+](=O)[O-])nc2n1`, for which the “hERG current change (%, negative = inhibition) at 10uM” value was 19.7%.
The figure for `CCCCN(C(=O)CCC(=O)Nc1cc(C)on1)C(C(=O)NC(C)(C)C)c1cccc(OC)c1OC` (stereo not shown) is 18.1%; for `O=C(NCc1cccnc1)c1ccc(NC(=O)c2cccc([N+](=O)[O-])c2)cc1` it is -19.2%; for `O=C(NCc1ccco1)C1CCCN(S(=O)(=O)c2cc(Cl)ccc2Cl)C1` (stereo not shown) it is 0.994%.
For the compound `C/C(=N\NC(=O)C(O)(c1ccccc1)c1ccccc1)c1ccc(NC(=O)CCCC(=O)O)cc1`, the “hERG current change (%, negative = inhibition) at 10uM” value is 16.2%.
The same measure for `CC(C)NC(=O)c1cc2c(s1)CCCC2`: 9.08%; for `CCN(CC)C(=O)Nc1ccc(C(=O)OC)cc1`: -1.77%.
The same measure for `Cc1ccccc1NC(=O)c1cccc(N2C(=O)C3CCC(C)CC3C2=O)c1` (stereo not shown): 25.9%.
As for `COc1ccc(Br)cc1CN1CCN(C(=O)c2ccco2)CC1.O=C(O)C(=O)O`, the “hERG current change (%, negative = inhibition) at 10uM” value is -34.9%.
The figure for `COc1ccc(OC)c(CCNC(=O)Cn2nc(C)c3c(C)n(-c4ccc(C)cc4)nc3c2=O)c1` is -59%; for `CCOc1ccc(/C(C)=N/N2C(=O)C(CC(=O)Nc3ccc(OC)cc3[N+](=O)[O-])SC2=Nc2cccc(C)c2C)cc1` (stereo not shown) it is -7.5%; for `COc1ccc(NC(=O)C2(c3cccs3)CCOCC2)cc1` it is 14.1%.
The same measure for `COc1ccc(S(=O)(=O)NC(CC(=O)NCCc2ccccc2)c2ccco2)cc1` (stereo not shown): 9.24%.
The same measure for `CNC(=S)Nc1ccc(C)cc1`: 12.8%.
With `COc1cccc(C(=O)Nc2cc(C(=O)NCCc3ccccc3)ccc2Cl)c1`, the “hERG current change (%, negative = inhibition) at 10uM” value amounted to 11.4%.
The same measure for `O=C(COC(=O)c1nc(Cl)ccc1Cl)Nc1ccc2[nH]c(=O)[nH]c2c1`: -6.46%; for `c1cncc(-c2nnc3n2CCC3)c1`: 13.8%; for `Cc1nc2ncnn2c(C)c1CCC(=O)N1CCN(Cc2ccccc2)CC1`: -7.67%.
The same measure for `CC1CCCN(C(=O)CN(C)S(=O)(=O)c2cccc3nsnc23)C1` (stereo not shown): -4.93%; for `Cc1cccc(Nc2nc(N)c([N+](=O)[O-])c(N3CC(C)CC(C)C3)n2)c1` (stereo not shown): 16.1%.
